# Assay results from PubChem BioAssay AID485281 (National Center for Advancing Translational Sciences (NCATS), 2010).
# Out of some 350,000 compounds screened, about 260 (0.074%) were called active. The inconclusive results got no clear call from the source; some entries with a clear call stand among them for comparison. Calls come from the whole dose curve; as a rule, active = well fitted inhibition curve with a large enough effect; inconclusive = small, poorly fitted or top-dose-only effect; inactive = no such curve, though single readings can be large or run the other way. Potencies of inconclusive entries are doubtful fits and often do not repeat.
# Molecular target: Ferritin light chain (Equus caballus) (UniProt P02791)
# UniProt P02791, sequence (P02791 whole entry, looked up): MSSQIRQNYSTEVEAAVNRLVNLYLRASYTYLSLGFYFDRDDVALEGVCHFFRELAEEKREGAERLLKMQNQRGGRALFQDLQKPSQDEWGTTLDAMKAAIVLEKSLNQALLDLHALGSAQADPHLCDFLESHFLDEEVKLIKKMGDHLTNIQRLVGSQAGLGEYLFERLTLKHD
# Assay: qHTS Assay for Identification of Novel General Anesthetics; note: nearly all actives have a fitted effect of over 20% in size
# Conditions: apoferritin/1-aminoanthracene competitive binding, fluorescence; series mostly up to 77.5 µM
# Outline: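 Apoferritin-based anesthetic binding model; compound displacement of fluorescent 1-AMA measured as endpoint fluorescence after 10 minutes at room temperature, scaled to free-ligand and complex controls.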
# Potency is the fitted concentration of half-maximal effect; tags give direction and shape of the fitted curve.
row,SMILES,Potency
1,O=c1c(-c2ccc(O)cc2)coc2cc(OC3OC(CO)C(O)C(O)C3O)ccc12 (centres undefined),inactive
2,CCCCCOC(=O)C1=C(C)Nc2nnnn2C1c1ccccc1Cl (centres undefined),"inconclusive: 2.51 µM [inhibitor, full curve, poor fit]"
3,Cc1ccccc1OCC(=O)N(Cc1ccc(N(C)C)cc1)C1CCS(=O)(=O)C1 (centres undefined),"inconclusive: 39.8 µM [inhibitor, partial curve]"
4,Cc1ccc(CN2CCCOCCS2(=O)=O)cc1,"inconclusive: 25.1 µM [inhibitor, partial curve]"
5,CC1=C(c2ccc(C)c(C)c2)S(=O)(=O)N(Cc2ccc(C(=O)NC(C)c3ccccc3)cc2)C1=O (centres undefined),inactive
6,O=c1[nH][nH]c(-c2ccccc2)c1C=Nc1cccc(Cl)c1,"inconclusive: 50.1 µM [inhibitor, single point]"
7,O=c1cc(-c2ccc3c(c2)OCO3)oc2ccccc12,inactive
8,O=C1C2C3C=CC(C4CC34)C2C(=O)N1/N=C/c1ccc(-c2cccc([N+](=O)[O-])c2)o1 (centres undefined),"inconclusive: 39.8 µM [inhibitor, single point]"
9,COc1ccc(Cc2nnc(NC(=O)C(C)C)s2)cc1,inactive
10,CC(C)[C@@H]1N[C@]2(C(=O)Nc3ccccc32)[C@@H]2C(=O)N(c3cccc(C(F)(F)F)c3)C(=O)[C@@H]21,"inconclusive: 50.1 µM [inhibitor, single point]"
11,Cc1cccc(NC(c2ccc(O)cc2)c2ccc3ccc(C)nc3c2O)n1 (centres undefined),"inconclusive: 44.7 µM [inhibitor, partial curve]"
12,CSc1ccccc1OCc1cc(C(=O)N(C)C(C)c2ccccn2)no1 (centres undefined),"inconclusive: 28.2 µM [inhibitor, partial curve]"
13,O=[N+]([O-])c1ccccc1S(=O)(=O)N1CCN(c2ccccn2)CC1,"inconclusive: 39.8 µM [inhibitor, single point]"
14,O=C(c1ccc(F)cc1)N1CCN(c2ccc([N+](=O)[O-])cc2-n2cccc2)CC1,"inconclusive: 22.4 µM [inhibitor, partial curve]"
15,CCCCC(=O)Nc1ccc(NC(=O)c2cccnc2)cn1,"inconclusive: 44.7 µM [inhibitor, single point]"
16,Fc1ccc(C2CCNCC2COc2ccc3c(c2)OCO3)cc1 (centres undefined),inactive
17,COc1ccc(C(=O)NC2CC2)cc1OC1CCN(Cc2ccc(Cl)cc2)CC1,inactive
18,COCCCNC(=O)c1oc2ccc(S(=O)(=O)N(C)C3CCCCC3)cc2c1C,"inconclusive: 44.7 µM [inhibitor, partial curve, poor fit]"
19,O=c1c(=Nc2ccccc2O)c(=O)c2ccccc12,"inconclusive: 25.1 µM [inhibitor, partial curve]"
